# Measured values as given in paper PMC9911399, “Two distinct binding modes provide the RNA-binding protein RbFox with extraordinary sequence specificity”.
# Where a chain is given by its changes, count along the chain named. The list shows a part of the results.
# T1: RBFOX1 RRM RbFoxmut (Fox-RRM*) (Homo sapiens, UniProt Q9NWB1 109-208, R118D;E147R;N151S;E152T)
# T1 sequence: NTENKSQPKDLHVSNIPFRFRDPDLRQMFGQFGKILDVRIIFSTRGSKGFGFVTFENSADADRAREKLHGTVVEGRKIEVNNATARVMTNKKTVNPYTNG
# B1: CGGGAUC (DNA:RNA)
# RNA: GGGAGACCGGAAUUCAGAUUGUCCCGGGAUCUUAAAUCCCGUCGUAGCCACCA
# DNA 1: CAATCTGAATTCCGGTCTCCC
# DNA 2: TGGTGGCTACGACGGGATT
# B2: AAACAUA (DNA:RNA)
# RNA: B1 RNA with C25A, G26A, G27A, G28C, C31A
# DNA 1: CAATCTGAATTCCGGTCTCCC
# DNA 2: TGGTGGCTACGACGGGATT
# B3: ACGGUUG (DNA:RNA)
# RNA: B1 RNA with C25A, G26C, A29U, C31G
# DNA 1: CAATCTGAATTCCGGTCTCCC
# DNA 2: TGGTGGCTACGACGGGATT
# B4: GUAGCAU (DNA:RNA)
# RNA: B1 RNA with C25G, G26U, G27A, A29C, U30A, C31U
# DNA 1: CAATCTGAATTCCGGTCTCCC
# DNA 2: TGGTGGCTACGACGGGATT
# B5: GCUGCAA (DNA:RNA)
# RNA: B1 RNA with C25G, G26C, G27U, A29C, U30A, C31A
# DNA 1: CAATCTGAATTCCGGTCTCCC
# DNA 2: TGGTGGCTACGACGGGATT
# B6: GAUCAAU (DNA:RNA)
# RNA: B1 RNA with C25G, G26A, G27U, G28C, U30A, C31U
# DNA 1: CAATCTGAATTCCGGTCTCCC
# DNA 2: TGGTGGCTACGACGGGATT
# B7: GCAAAUA (DNA:RNA)
# RNA: B1 RNA with C25G, G26C, G27A, G28A, C31A
# DNA 1: CAATCTGAATTCCGGTCTCCC
# DNA 2: TGGTGGCTACGACGGGATT
# B8: CUAUAAG (DNA:RNA)
# RNA: B1 RNA with G26U, G27A, G28U, U30A, C31G
# DNA 1: CAATCTGAATTCCGGTCTCCC
# DNA 2: TGGTGGCTACGACGGGATT
# B9: CAUGAUA (DNA:RNA)
# RNA: B1 RNA with G26A, G27U, C31A
# DNA 1: CAATCTGAATTCCGGTCTCCC
# DNA 2: TGGTGGCTACGACGGGATT
# B10: CAAUCCU (DNA:RNA)
# RNA: B1 RNA with G26A, G27A, G28U, A29C, U30C, C31U
# DNA 1: CAATCTGAATTCCGGTCTCCC
# DNA 2: TGGTGGCTACGACGGGATT
# B11: CACUGAA (DNA:RNA)
# RNA: B1 RNA with G26A, G27C, G28U, A29G, U30A, C31A
# DNA 1: CAATCTGAATTCCGGTCTCCC
# DNA 2: TGGTGGCTACGACGGGATT
# B12: GAAGAAC (DNA:RNA)
# RNA: B1 RNA with C25G, G26A, G27A, U30A
# DNA 1: CAATCTGAATTCCGGTCTCCC
# DNA 2: TGGTGGCTACGACGGGATT
# B13: GGGGUCC (DNA:RNA)
# RNA: B1 RNA with C25G, A29U, U30C
# DNA 1: CAATCTGAATTCCGGTCTCCC
# DNA 2: TGGTGGCTACGACGGGATT
# B14: AACCGUG (DNA:RNA)
# RNA: B1 RNA with C25A, G26A, G27C, G28C, A29G, C31G
# DNA 1: CAATCTGAATTCCGGTCTCCC
# DNA 2: TGGTGGCTACGACGGGATT
# B15: GAAUGAG (DNA:RNA)
# RNA: GGGAGACCGGAAUUCAGAUUGUCCGAAUGAGUUAAAUCCCGUCGUAGCCACCA
# DNA 1: CAATCTGAATTCCGGTCTCCC
# DNA 2: TGGTGGCTACGACGGGATT
# B16: GUGUGGG (DNA:RNA)
# RNA: B15 RNA with A26U, A27G, A30G
# DNA 1: CAATCTGAATTCCGGTCTCCC
# DNA 2: TGGTGGCTACGACGGGATT
# B17: GAGUCUC (DNA:RNA)
# RNA: B1 RNA with C25G, G26A, G28U, A29C
# DNA 1: CAATCTGAATTCCGGTCTCCC
# DNA 2: TGGTGGCTACGACGGGATT
# B18: GCACGAG (DNA:RNA)
# RNA: B15 RNA with A26C, U28C
# DNA 1: CAATCTGAATTCCGGTCTCCC
# DNA 2: TGGTGGCTACGACGGGATT
# B19: GCUGGGG (DNA:RNA)
# RNA: B15 RNA with A26C, A27U, U28G, A30G
# DNA 1: CAATCTGAATTCCGGTCTCCC
# DNA 2: TGGTGGCTACGACGGGATT
# B20: CACGCAG (DNA:RNA)
# RNA: B15 RNA with G25C, A27C, U28G, G29C
# DNA 1: CAATCTGAATTCCGGTCTCCC
# DNA 2: TGGTGGCTACGACGGGATT
# B21: UUUUCUC (DNA:RNA)
# RNA: B1 RNA with C25U, G26U, G27U, G28U, A29C
# DNA 1: CAATCTGAATTCCGGTCTCCC
# DNA 2: TGGTGGCTACGACGGGATT
# B22: CACCUGA (DNA:RNA)
# RNA: B1 RNA with G26A, G27C, G28C, A29U, U30G, C31A
# DNA 1: CAATCTGAATTCCGGTCTCCC
# DNA 2: TGGTGGCTACGACGGGATT
# B23: UACGCCG (DNA:RNA)
# RNA: B15 RNA with G25U, A27C, U28G, G29C, A30C
# DNA 1: CAATCTGAATTCCGGTCTCCC
# DNA 2: TGGTGGCTACGACGGGATT
# B24: UUCUCCU (DNA:RNA)
# RNA: B15 RNA with G25U, A26U, A27C, G29C, A30C, G31U
# DNA 1: CAATCTGAATTCCGGTCTCCC
# DNA 2: TGGTGGCTACGACGGGATT
# B25: GCGGACU (DNA:RNA)
# RNA: B1 RNA with C25G, G26C, U30C, C31U
# DNA 1: CAATCTGAATTCCGGTCTCCC
# DNA 2: TGGTGGCTACGACGGGATT
# B26: AAACGCA (DNA:RNA)
# RNA: B15 RNA with G25A, U28C, A30C, G31A
# DNA 1: CAATCTGAATTCCGGTCTCCC
# DNA 2: TGGTGGCTACGACGGGATT
# B27: CGGUUUU (DNA:RNA)
# RNA: B1 RNA with G28U, A29U, C31U
# DNA 1: CAATCTGAATTCCGGTCTCCC
# DNA 2: TGGTGGCTACGACGGGATT
# B28: AGGUAGU (DNA:RNA)
# RNA: B1 RNA with C25A, G28U, U30G, C31U
# DNA 1: CAATCTGAATTCCGGTCTCCC
# DNA 2: TGGTGGCTACGACGGGATT
# B29: AUCAGUG (DNA:RNA)
# RNA: B15 RNA with G25A, A26U, A27C, U28A, A30U
# DNA 1: CAATCTGAATTCCGGTCTCCC
# DNA 2: TGGTGGCTACGACGGGATT
# B30: GAUCGAC (DNA:RNA)
# RNA: B15 RNA with A27U, U28C, G31C
# DNA 1: CAATCTGAATTCCGGTCTCCC
# DNA 2: TGGTGGCTACGACGGGATT
# B31: UAGACCC (DNA:RNA)
# RNA: B1 RNA with C25U, G26A, G28A, A29C, U30C
# DNA 1: CAATCTGAATTCCGGTCTCCC
# DNA 2: TGGTGGCTACGACGGGATT
# Biological target: T1, RBFOX1 RRM RbFoxmut (Fox-RRM*)
# Test: EMSA; HiTS-Eq, 1 nM pool, 10 min; buffer printed only for the single-RNA assays: 10 mM Tris pH 7.5, 150 mM NaCl, 3.4 mM EDTA, 0.001% NP-40, 30 C
# Conditions: tags: His6 N-terminal (pET28a); label: 5' 32P
# Procedure, shortened: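 Purified RbFox RRM, wild type or mutant, was incubated for 10 min in 50 µL with 1 nM of a 5′-radiolabelled RNA pool carrying 7 randomized nucleotides, whose flanks were annealed to DNA oligonucleotides, over a series of increasing protein concentrations. Unbound RNA was resolved on 8% native PAGE, cut out, reverse-transcribed, barcoded by PCR and sequenced on an Illumina HiSeq 2500. Relative association constants were derived from changes in read counts for each RNA species versus the control reaction and normalised to the cognate motif.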
row,Binder,binding signal
1,B1,0.141 KA relative to UGCAUGU
2,B2,0.0793 KA relative to UGCAUGU
3,B3,0.208 KA relative to UGCAUGU
4,B4,0.127 KA relative to UGCAUGU
5,B5,0.0831 KA relative to UGCAUGU
6,B6,0.0528 KA relative to UGCAUGU
7,B7,0.1 KA relative to UGCAUGU
8,B8,0.0991 KA relative to UGCAUGU
9,B9,0.136 KA relative to UGCAUGU
10,B10,0.087 KA relative to UGCAUGU
11,B11,0.0869 KA relative to UGCAUGU
12,B12,0.0735 KA relative to UGCAUGU
13,B13,0.127 KA relative to UGCAUGU
14,B14,0.109 KA relative to UGCAUGU
15,B15,0.983 KA relative to UGCAUGU
16,B16,0.102 KA relative to UGCAUGU

row,Binder,binding signal
1,B17,0.0746 KA relative to UGCAUGU
2,B18,0.405 KA relative to UGCAUGU
3,B19,0.0954 KA relative to UGCAUGU
4,B20,0.103 KA relative to UGCAUGU
5,B21,0.0443 KA relative to UGCAUGU
6,B22,0.0878 KA relative to UGCAUGU
7,B23,0.0796 KA relative to UGCAUGU
8,B24,0.0487 KA relative to UGCAUGU
9,B25,0.0813 KA relative to UGCAUGU
10,B26,0.117 KA relative to UGCAUGU
11,B27,0.0605 KA relative to UGCAUGU
12,B28,0.118 KA relative to UGCAUGU
13,B29,0.17 KA relative to UGCAUGU
14,B30,0.0797 KA relative to UGCAUGU
15,B31,0.0507 KA relative to UGCAUGU
